Results on 1 molecule are retold here after patent US20250090677A1, “ANTI-CDH6 ANTIBODIES AND ANTIBODY-DRUG CONJUGATES THEREOF” (MULTITUDE THERAPEUTICS INC., priority 2021, published 2025).

One experiment deals with T1, CDH10-ECD-His (Homo sapiens, UniProt Q9Y6N8).
T1 construct: His (C); purchased Acro Biosystems, Inc
T1 sequence (Q9Y6N8 55-613 limits assumed): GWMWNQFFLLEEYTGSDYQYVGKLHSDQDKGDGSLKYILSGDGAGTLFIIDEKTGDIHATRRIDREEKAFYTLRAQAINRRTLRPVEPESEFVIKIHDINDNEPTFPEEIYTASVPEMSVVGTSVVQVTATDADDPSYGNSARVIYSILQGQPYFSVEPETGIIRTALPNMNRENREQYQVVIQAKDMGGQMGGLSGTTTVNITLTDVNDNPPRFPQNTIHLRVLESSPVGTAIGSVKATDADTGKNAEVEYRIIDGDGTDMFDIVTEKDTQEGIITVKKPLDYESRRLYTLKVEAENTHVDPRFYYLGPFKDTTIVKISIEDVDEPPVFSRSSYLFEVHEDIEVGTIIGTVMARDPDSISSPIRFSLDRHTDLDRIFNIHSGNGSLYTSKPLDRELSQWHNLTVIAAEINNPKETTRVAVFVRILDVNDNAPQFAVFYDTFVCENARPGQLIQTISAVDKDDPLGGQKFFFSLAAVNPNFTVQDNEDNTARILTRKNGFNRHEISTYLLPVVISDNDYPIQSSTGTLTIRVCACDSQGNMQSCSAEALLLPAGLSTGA
In words: ELISA binding to human CDH10-ECD-His. Particulars: FIG. 3. As to the method: (§1) CDH9 and […] are the most closely related family members to CDH6. Binding of CL069707-H1L1 on human CDH6, CDH9 and CDH10 ECD domains were analyzed by ELISA Binding Assay. Human […], CDH9-ECD-His and CDH10-ECD-His antigens were obtained from Acro Biosystems, Inc. 100 μL of 1 μg/mL of the antigens diluted in PBS were added to 96 well plates and incubated in 4° C. overnight. The plates were washed 3 times with 300 μL of washing buffer. Then 100 μL/well of 1% BSA blocking reagent were added to the plates, and incubated at 37° C. for 1 h then the blocking reagent were discarded. A 3-fold serial dilution of CL069707-H1L1 was added to the plates and then incubated at 37° C. for 1 h. Then the plates were washed 3 times with 300 μL of washing buffer. 100 μL/well of HRP-conjugated anti-Human antibody diluted in 1% BSA were added to the plates and then incubated at 37° C. for 1 h. The plates were washed 3 times with 300 μL of washing buffer. 100 μL/well of TMB substrate were added to the plates and incubated for about 10 min in room temperature. Then the reaction was stopped with 100 μL/well of stopping solution. OD450 was read with a plate reader and the data were processed.
In general terms: An ELISA detects its analyte on a solid surface through an enzyme-linked reagent.

A further experiment deals with T2, CDH9-ECD-His (Homo sapiens, UniProt Q9ULB4).
T2 construct: His (C); purchased Acro Biosystems, Inc
T2 sequence (Q9ULB4 54-615 limits assumed): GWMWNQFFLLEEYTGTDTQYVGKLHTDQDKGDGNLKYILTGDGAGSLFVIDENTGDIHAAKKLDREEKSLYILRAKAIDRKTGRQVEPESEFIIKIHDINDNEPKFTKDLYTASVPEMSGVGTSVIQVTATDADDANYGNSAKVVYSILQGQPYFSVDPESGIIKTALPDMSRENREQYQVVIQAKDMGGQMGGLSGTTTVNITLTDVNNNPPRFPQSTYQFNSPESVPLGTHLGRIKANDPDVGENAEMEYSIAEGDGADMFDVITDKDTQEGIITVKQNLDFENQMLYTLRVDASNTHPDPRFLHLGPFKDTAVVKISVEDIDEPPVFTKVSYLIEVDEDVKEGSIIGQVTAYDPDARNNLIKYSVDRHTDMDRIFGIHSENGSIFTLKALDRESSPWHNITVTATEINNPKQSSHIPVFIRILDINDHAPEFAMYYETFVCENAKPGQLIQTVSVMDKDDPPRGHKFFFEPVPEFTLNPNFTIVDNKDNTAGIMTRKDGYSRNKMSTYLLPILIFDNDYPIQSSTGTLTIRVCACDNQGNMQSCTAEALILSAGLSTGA
In words: ELISA binding to human CDH9-ECD-His. Particulars: FIG. 3. As to the method:
as §1

Experiment [1] concerns ovarian cancer cell line OVCAR-3. In words: Flow cytometry (FACS) binding of antibodies to OVCAR-3 tumor cells. Particulars: FIG. 1B (vs Ch069707), FIG. 2 (vs Ch069463). Further details: species or system human. As to the method:
The binding EC50 of the humanized antibodies on tumor cell were tested as follow. Human ovarian cancer cell line OVCAR-3(purchased from National Collection of Authenticated Cell Cultures) cell culture was maintained in vitro as independent monolayer cultures at 37° C. in an atmosphere of 5% CO2. The cells were harvested using trypsin-EDTA partial digestion followed by centrifugation at 1000 rpm for 5 minutes. The cell was resuspended in cold PBS and serial dilution of Ch069707 and CL069707-H1L1, CL069707-H1L2, CL069707-H2L1 and CL069707-H2L2 antibodies were added. Ch069707 antibody was a chimeric antibody. The variable regions were the same as those of CL069707, and the constant region was the same as human IgG1 constant regions (SEQ ID NO: 70 and SEQ ID NO: 71). The cell solutions were mixed, incubated at 4° C. and washed with cold PBS prior to addition of secondary antibody conjugates (for detection purposes). After incubation at 4° C., the cells were washed with PBS, and then subjected to flow cytometry (FACS) analysis.
The mouse Anti-CDH6 antibody CL069463 was humanized by the same method. CL069463-H1L1, CL069463-H2L2, CL069463-H2L3 had similar EC50 as Ch069463 on OVCAR-3 cell. Ch069463 antibody was a chimeric antibody. The variable regions were the same as those of CL069463, and the constant region was the same as human IgG1 constant regions (SEQ ID NO: 70 and SEQ ID NO: 71).

B1: CL069707-H1L1: humanized antibody; heavy chain SEQ ID NO: 74, light chain SEQ ID NO: 76 (antibody)
heavy: EVQLVESGGGLVQPGGSLRLSCAASGFTFTTYAMNWVRQAPGKGLEWVARIRIKNNNYATYYADSVTDRFTISRDDSKNSLYLQMNSLKTEDTAVYYCVRPDYGNYGLAYWGQGTLVTVSS[left out - human IgG1 constant region]
light: DIQLTQSPSSLSASVGDRVTITCSASSSISSHYLHWYQQKPGKSPKLLIYRSFYLASGVPSRFSGSGSGTDFTLTISSLQPEDFATYYCQQDIVPLTFGQGTKLEIKRTVAAPSVFIFPPSDEQLKSGTASVVCLLNNFYPREAKVQWKVDNALQSGNSQESVTEQDSKDSTYSLSSTLTLSKADYEKHKVYACEVTHQGLSSPVTKSFNRGEC
modifications: CL069707-H1; CL069707-L1
Turning to B1, in the experiment with CDH10-ECD-His, the “binding to CDH10-ECD-His” value is “does not bind”. Also, the “binding to CDH9-ECD-His” value with CDH9-ECD-His is recorded as “does not bind”. Moreover, in experiment [1], the “binding EC50 on OVCAR-3 cell compared with the chimeric antibody” value is “slightly lower EC50”.
